Consider 89 compounds from PMC4336329 (PLoS ONE, 2015).

The whole screen tested about 310,000 compounds, of which about 2,200 (0.71%) showed an effect of 50% or more. The effect is printed as a negative number. Some of the results follow.

This experiment deals with human ether-à-go-go-related gene (hERG) potassium channel (human, UniProt Q12809). The experiment is described as follows: primary screen, population patch clamp on CHO cells stably expressing hERG.
Sequence of human ether-à-go-go-related gene (hERG) potassium channel (Q12809 whole entry, looked up): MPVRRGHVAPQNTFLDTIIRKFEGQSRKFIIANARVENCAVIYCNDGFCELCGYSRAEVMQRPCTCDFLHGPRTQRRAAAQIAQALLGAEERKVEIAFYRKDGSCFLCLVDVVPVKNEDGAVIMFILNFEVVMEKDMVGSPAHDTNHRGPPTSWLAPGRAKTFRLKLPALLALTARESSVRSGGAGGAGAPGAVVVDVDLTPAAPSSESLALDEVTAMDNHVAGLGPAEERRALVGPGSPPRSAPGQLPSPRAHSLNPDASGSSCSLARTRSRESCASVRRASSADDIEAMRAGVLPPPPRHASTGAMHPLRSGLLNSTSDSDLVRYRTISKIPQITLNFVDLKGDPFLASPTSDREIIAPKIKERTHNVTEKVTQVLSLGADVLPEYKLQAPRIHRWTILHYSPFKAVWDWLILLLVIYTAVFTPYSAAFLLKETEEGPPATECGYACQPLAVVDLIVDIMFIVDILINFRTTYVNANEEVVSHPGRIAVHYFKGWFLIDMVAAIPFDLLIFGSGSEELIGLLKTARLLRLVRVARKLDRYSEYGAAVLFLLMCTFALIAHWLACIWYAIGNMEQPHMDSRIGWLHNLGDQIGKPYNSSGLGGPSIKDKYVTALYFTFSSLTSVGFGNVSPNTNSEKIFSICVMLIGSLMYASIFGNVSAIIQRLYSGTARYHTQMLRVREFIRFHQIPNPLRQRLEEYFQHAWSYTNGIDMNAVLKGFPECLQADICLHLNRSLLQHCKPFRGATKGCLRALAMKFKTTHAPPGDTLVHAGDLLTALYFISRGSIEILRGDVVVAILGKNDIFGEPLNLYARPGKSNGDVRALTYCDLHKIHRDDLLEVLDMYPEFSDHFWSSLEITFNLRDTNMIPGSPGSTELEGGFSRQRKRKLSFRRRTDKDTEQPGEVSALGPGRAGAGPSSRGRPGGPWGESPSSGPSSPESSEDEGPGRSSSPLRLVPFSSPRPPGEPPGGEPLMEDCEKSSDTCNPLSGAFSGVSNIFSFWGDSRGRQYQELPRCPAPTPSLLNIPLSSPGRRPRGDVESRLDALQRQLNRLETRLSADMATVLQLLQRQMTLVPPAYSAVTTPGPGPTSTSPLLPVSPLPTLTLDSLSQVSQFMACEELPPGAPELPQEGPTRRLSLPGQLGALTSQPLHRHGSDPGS
As for `CNc1oc(-c2ccc(Cl)cc2)nc1P(=O)(c1ccccc1)c1ccccc1`, the “hERG current change (%, negative = inhibition) at 1uM” value came to 8.15%.
Turning to `O=C(NNC(=O)C1C2CCC(C2)C1C(=O)O)c1ccc(Cl)cc1` (centres unmarked), the “hERG current change (%, negative = inhibition) at 1uM” value worked out at 18.7%.
`O=C(O)CC(NS(=O)(=O)c1cccc2nsnc12)c1ccc(F)cc1` (centres unmarked): the “hERG current change (%, negative = inhibition) at 1uM” value is reported as 9.14%.
For `CCc1nn(CC(=O)NCCCN(CC)Cc2ccccc2)c(=O)c2cc3sccc3n12` the value was -17.2%.
The same measure for `CC(C)(C)c1ccc(C(=O)OCC(=O)Nc2sc3c(c2C#N)CCC3)cc1`: -1.3%; for `Cn1cnnc1SCCNS(=O)(=O)c1cccc([N+](=O)[O-])c1`: 0.611%; for `Cc1cc2c3c(c1)C(C)CC(C)(C)N3C(=O)C2=C(C#N)C#N` (centres unmarked): 9.79%.
As for `CCC(=O)c1ccc(OCC(=O)Nc2ccc3nc(C)sc3c2)cc1`, the “hERG current change (%, negative = inhibition) at 1uM” value came to 11.2%.
The same measure for `O=C(Cc1ccc([N+](=O)[O-])cc1)Nc1nnc(C2CC2)s1`: 15%; for `N#C/C(=C(/O)COc1cccc2ccccc12)c1nc2ccccc2[nH]1`: -1.15%.
For `Cc1ccc(C(=O)NCC(=O)NCC(=O)OCc2ccc(F)cc2)cc1` the value was 12.8%; for `CN(CCc1ccccn1)C(=O)Nc1cc(Cl)cc(Cl)c1`, 4.34%; for `COc1cccc(-c2cc(C(=O)NCc3ccco3)c3ccccc3n2)c1`, 11.2%.
Turning to `CCc1ccc(OCC(=O)Nc2nnc(C3CCCC3)s2)cc1`, the “hERG current change (%, negative = inhibition) at 1uM” value is on record as 17.5%.
Regarding `CC(C)CCNS(=O)(=O)c1ccc(-c2ccc(S(=O)(=O)NCCC(C)C)cc2)cc1`, the “hERG current change (%, negative = inhibition) at 1uM” value was 12.3%.
For `CCOC(=O)COc1cc(N)c(Cl)cc1Cl` the value was 10.3%; for `Cc1cc(C(=O)CN2C(=O)NC3(CCCCC3C)C2=O)c(C)n1Cc1cccs1` (centres unmarked), 10.7%.
For `COc1cc2c(cc1OC)CN(C(=O)c1ccc3[nH]c(C)c(C)c3c1)CC2`, the “hERG current change (%, negative = inhibition) at 1uM” value stood at 8.18%.
The same measure for `CN(C)S(=O)(=O)N1CCC(Oc2ccc(C(=O)NCCc3cscn3)cc2)CC1`: 10.7%.
Turning to `CCCOc1ccc(Br)cc1/C=N/NC(=O)c1cc(OC)c(OC)c(OC)c1`, the “hERG current change (%, negative = inhibition) at 1uM” value is 10.9%.
As for `O=C(NNc1ccccc1[N+](=O)[O-])Nc1ccc(F)cc1`, the “hERG current change (%, negative = inhibition) at 1uM” value is recorded as 0.521%.
Regarding `Cc1cc(-c2cccs2)c2c(n1)sc1c(=O)[nH]c(=O)[nH]c12`, the “hERG current change (%, negative = inhibition) at 1uM” value turned out to be 8.61%.
For the compound `COc1ccc(/C=C/C(=O)NCC(=O)N/N=C(/C)c2ccco2)cc1`, the “hERG current change (%, negative = inhibition) at 1uM” value is 14.7%.
For `CC(C)C(=O)NC(=S)Nc1ccc(S(=O)(=O)Nc2nccs2)cc1` the value was 16.1%; for `COc1ccc(C(=O)/C=C/C(=O)N(CC(=O)NC2CCCCC2)CC2CCCO2)c(O)c1` (centres unmarked), 9.64%.
The same measure for `Cc1cc(S(=O)(=O)NCc2ccc3c(c2)OCO3)ccc1F`: 2.68%; for `O=C(CSc1ncn[nH]1)c1ccc(OC(F)F)cc1`: 5.85%; for `Cc1ncc(C(=O)O)c(C(=O)O)c1N`: 12.4%.
Take `Cc1cc(C)n2nc(SC(C)C(=O)N3CCC4(CC3)OCCO4)nc2n1` (centres unmarked): the “hERG current change (%, negative = inhibition) at 1uM” value turned out to be 9.95%.
On to `Cn1c(NC(=O)c2ccc(Cl)cc2)c(-c2ccccn2)c(=O)c2ccccc21`, for which the “hERG current change (%, negative = inhibition) at 1uM” value came out at 5.7%.
The same measure for `COc1cc(C)c2c(c1C=O)Oc1c(c(C)c(O)c3c1C(O)OC3=O)OC2=O` (centres unmarked): 16.6%; for `CC(=O)c1ccc(NC(=O)c2ccc(NC(=O)c3ccco3)cc2)cc1`: 19.8%.
For `COc1ccc(C2c3c(nc[nH]c3=O)Oc3nc[nH]c(=O)c32)cc1` the value was 9.65%; for `Cc1ccccc1C(=O)Nc1ccnn1C1CCN(C(=O)c2cnsn2)CC1`, -11.2%.
The same measure for `CCC(C)NC(=S)N1CCN(Cc2ccccc2)CC1` (centres unmarked): 10.3%.
`FC(F)(F)Sc1ccc(NC(=S)NCc2ccccc2)cc1`: the “hERG current change (%, negative = inhibition) at 1uM” value worked out at 16.1%.
As for `CCN(CCNC(=O)CC1Oc2ccccc2NC1=O)c1ccccc1` (centres unmarked), the “hERG current change (%, negative = inhibition) at 1uM” value came out at 12.6%.
For `Cn1c(C(=O)N2CCN(c3ccc(Cl)cc3)CC2)cc2c(=O)[nH]c3ccccc3c21` the value was -56%.
The same measure for `COc1ccc(CNc2nccs2)cc1`: 13.4%; for `CCN(CC)c1ccc(C=C(c2nnnn2-c2ccc(C)cc2)c2nnnn2-c2ccc(C)cc2)cc1`: 16.5%.
The same measure for `CC(=O)c1ccc(N=C2SCCCN2C(=O)C2CCCCC2)cc1`: 18.8%; for `Cn1c(CC(=O)Nc2ccc(Cl)c(Cl)c2)nnc1SCC(=O)Nc1nccs1`: -3.4%; for `CCCC(=O)c1ccc(N2CCCC2)c(F)c1`: 12.6%.
With `O=C(c1ccc(Cl)c([N+](=O)[O-])c1)N(c1ccccn1)c1ccccn1`, the “hERG current change (%, negative = inhibition) at 1uM” value is recorded as -15.9%.
As to `N#CCN(C(=O)COC(=O)CCCNC(=O)c1ccc(Cl)cc1)c1ccccc1`, the “hERG current change (%, negative = inhibition) at 1uM” value was -1.3%.
`Cc1ccc2nc(SCn3nnc4ccccc4c3=O)[nH]c2c1`: the “hERG current change (%, negative = inhibition) at 1uM” value was found to be 23.6%.
The same measure for `Clc1ccc(/C=N/Nc2ncnc3nc[nH]c23)cc1`: -8.26%; for `CCCn1c2ccccc2c2cnn(CC(=O)NC3CCCCC3)c(=O)c21`: 10.5%; for `COc1ccc(C(=O)NC(=S)NNC(=O)c2cccnc2)cc1`: 9.61%.
Turning to `CCCCn1c(N)c(N(CCOC)C(=O)COC(=O)COc2cccc(C(C)=O)c2)c(=O)[nH]c1=O`, the “hERG current change (%, negative = inhibition) at 1uM” value came out at 13.1%.
`COC(=O)c1cn(-c2ccccc2)c(C)c1C(=O)OC`: the “hERG current change (%, negative = inhibition) at 1uM” value was 2.71%.
For `CC(=O)c1ccc(NC(=O)CN2C(=O)CCC2=O)cc1` the value was -12.4%; for `COc1ccccc1C(=O)COC(=O)c1cccc(-n2cnnn2)c1`, -4.03%; for `CCOc1ccc(OCCSc2nc3ccccc3c(=O)[nH]2)cc1`, 16.3%.
The same measure for `COc1ccccc1-c1nnc(SC)n1C`: 14.2%; for `Cc1ccc(CN2CCN(C)CC2)c(C)c1`: 8.12%; for `CSc1nc2cc(C)nn2c(-c2ccc(C(C)(C)C)cc2)c1C#N`: 5.78%.
For `CCOC(=O)/C(C#N)=C1/C=CN(Cc2ccccc2)C=N1` the value was -11.9%.
As for `Cc1cccc(C)c1NC(=O)C(NC=O)c1ccc(N(C)C)cc1` (centres unmarked), the “hERG current change (%, negative = inhibition) at 1uM” value was found to be 5.82%.
For `CC12c3ccccc3C(c3ccccc31)C1C(=O)N(Cc3cccnc3)C(=O)C12` (centres unmarked) the value was 7.12%; for `CC(C)(C)C(=O)N1CCn2c1nc1ccccc12`, 12%; for `COc1ccc(S(=O)(=O)N2CCN(CC(=O)NCCc3cccs3)CC2)cc1`, 7.69%.
For `COc1cc(/C=C/C(=O)Nc2ccc3nc4n(c(=O)c3c2)CCCC4)cc(OC)c1OC` the value was 1.64%.
For `Cl.FC(F)(F)c1cc(-c2ccco2)nc(N2CCN(Cc3ccccc3)CC2)n1` the value was 4.24%; for `NS(=O)(=O)c1cccc(NC(=O)c2ccccc2NS(=O)(=O)c2ccc(F)cc2)c1`, 5.13%; for `CC1CCCC(NC(=O)Cc2ccc(Br)cc2)C1C` (centres unmarked), 16.9%.
For the compound `COC(=O)c1cc(C(=O)Nc2ccc(S(N)(=O)=O)cc2)cc([N+](=O)[O-])c1`, the “hERG current change (%, negative = inhibition) at 1uM” value is on record as 14.6%.
Regarding `C=CCOC(=O)C1=C[C@H](c2coc3ccccc3c2=O)[C@@H](CCCO)[C@H](OCC)O1`, the “hERG current change (%, negative = inhibition) at 1uM” value turned out to be 13.5%.
For the compound `Cc1ccc(CSc2nnc3ccc(-c4ccncc4)nn23)cc1`, the “hERG current change (%, negative = inhibition) at 1uM” value is given as -3.17%.
For `CCc1ccc(CNC(=O)CCn2nc(C)c3c(C)n(-c4ccccc4)nc3c2=O)cc1` the value was 8.73%; for `O=C(Cc1cccc2ccccc12)Nc1ccc(Br)cc1C(=O)O`, 9.56%; for `Cc1ccc(CCC(=O)Nc2nccs2)o1`, 11.1%.
The same measure for `Cc1c(Cl)c(C(=O)NNC(=S)Nc2ccccc2)nn1C`: -8.8%; for `CCN(CC(=O)Nc1ccccc1C(F)(F)F)C(=O)CCc1nc2sc3c(c2c(=O)[nH]1)CCCC3`: 8.67%.
For the compound `CCOC(=O)C1(Cc2cccc(OC)c2)CCN(C/C=C/c2ccc(OC)cc2)CC1`, the “hERG current change (%, negative = inhibition) at 1uM” value was -14.2%.
On to `Cc1ccccc1CC(=O)Nc1ccc(S(=O)(=O)N2CCOCC2)cc1`, for which the “hERG current change (%, negative = inhibition) at 1uM” value is listed as 14.2%.
Turning to `Nc1nc(SCC(=O)OCc2ccccc2)[nH]c(=O)c1NC(=O)c1ccco1`, the “hERG current change (%, negative = inhibition) at 1uM” value is on record as 0.057%.
For `O=C(OCc1nc2ccccc2[nH]1)C12CC3CC(CC(C3)C1)C2` the value was 6.44%.
For `COc1cc(/C=N/NC(=O)c2cc(C3CC3)[nH]n2)ccc1O` the value was -1.46%; for `CCOc1ccccc1C1CC(=O)Nc2cc(OC)c(OC)cc21` (centres unmarked), 12.7%.
For `CCn1c(SCC(=O)N2c3ccccc3CC2C)nnc1-c1ccco1` (centres unmarked) the value was 4.56%; for `COc1cc(CN2CCN(c3cccc(C)c3C)CC2)cc([N+](=O)[O-])c1O`, 9.28%.
Turning to `Clc1cccc(-c2nc(-c3ccc(-c4nn[nH]n4)cc3)no2)c1`, the “hERG current change (%, negative = inhibition) at 1uM” value is 8.94%.
For `CCOC(=O)c1sc(NC(=S)NC(=O)c2ccccc2Cl)c(C(=O)OCC)c1C` the value was 7.97%; for `COc1cc(CNC(C)(C)CO)ccc1OCC(=O)NC(C)(C)C`, 6.44%.
On to `CCC(=O)N1CCc2cc(Br)cc(S(=O)(=O)NCCCN(CC)Cc3ccccc3)c21`, for which the “hERG current change (%, negative = inhibition) at 1uM” value is given as 4.43%.
For `CC12CC(NC(=O)N1c1cccc(C(=O)Nc3ncn[nH]3)c1)c1ccccc1O2` (centres unmarked) the value was -5.52%; for `Cc1ccc(C(=O)N2C(CC(=O)Nc3ccc(Cl)cc3)C(=O)NC3CCCCC32)cc1` (centres unmarked), 4.71%.
With `COc1ccc(C(=O)Nc2ccc(C(=O)NCCc3ccc(OC)c(OC)c3)cc2)cc1`, the “hERG current change (%, negative = inhibition) at 1uM” value is 5.39%.
